Test results from article PMC4336329 (PLoS ONE, 2015).
Among all 310,000 compounds or so, about 2,200 (0.71%) showed an effect of 50% or more. Effects have a minus sign here. Some of the results follow.

Target: human ether-à-go-go-related gene (hERG) potassium channel (human, UniProt Q12809)
Assay: primary screen, population patch clamp on CHO cells stably expressing hERG

human ether-à-go-go-related gene (hERG) potassium channel, sequence (Q12809 whole entry, looked up): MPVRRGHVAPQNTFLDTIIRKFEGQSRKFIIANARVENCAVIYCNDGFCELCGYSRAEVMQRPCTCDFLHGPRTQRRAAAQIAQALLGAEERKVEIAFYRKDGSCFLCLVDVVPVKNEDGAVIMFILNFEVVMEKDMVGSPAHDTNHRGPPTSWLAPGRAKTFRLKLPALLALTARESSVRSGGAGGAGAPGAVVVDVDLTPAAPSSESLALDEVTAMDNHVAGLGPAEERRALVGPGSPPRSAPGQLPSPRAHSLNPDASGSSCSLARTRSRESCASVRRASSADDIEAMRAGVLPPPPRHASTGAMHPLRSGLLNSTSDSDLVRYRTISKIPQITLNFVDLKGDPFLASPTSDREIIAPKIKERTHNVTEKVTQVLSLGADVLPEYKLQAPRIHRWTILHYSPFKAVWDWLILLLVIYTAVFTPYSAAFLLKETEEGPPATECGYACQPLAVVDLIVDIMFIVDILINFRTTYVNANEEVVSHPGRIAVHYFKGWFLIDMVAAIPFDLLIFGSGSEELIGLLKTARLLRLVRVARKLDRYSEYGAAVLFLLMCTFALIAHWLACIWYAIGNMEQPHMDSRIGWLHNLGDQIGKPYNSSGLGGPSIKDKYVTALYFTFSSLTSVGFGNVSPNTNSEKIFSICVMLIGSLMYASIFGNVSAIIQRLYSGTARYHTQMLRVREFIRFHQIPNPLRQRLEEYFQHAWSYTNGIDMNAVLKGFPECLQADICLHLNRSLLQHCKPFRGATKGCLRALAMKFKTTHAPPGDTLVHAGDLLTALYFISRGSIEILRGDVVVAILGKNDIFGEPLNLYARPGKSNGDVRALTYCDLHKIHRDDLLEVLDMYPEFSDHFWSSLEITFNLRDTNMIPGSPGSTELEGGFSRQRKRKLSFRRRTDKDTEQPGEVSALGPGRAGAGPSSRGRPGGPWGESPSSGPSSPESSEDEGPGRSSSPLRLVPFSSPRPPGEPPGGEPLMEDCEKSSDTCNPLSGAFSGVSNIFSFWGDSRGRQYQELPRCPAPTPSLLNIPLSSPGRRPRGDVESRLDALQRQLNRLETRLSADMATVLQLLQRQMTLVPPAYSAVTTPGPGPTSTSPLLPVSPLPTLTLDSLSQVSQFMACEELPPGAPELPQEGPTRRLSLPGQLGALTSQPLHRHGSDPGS

Structure (SMILES) | hERG current change (%, negative = inhibition) at 1uM [%]
CCOc1ncccc1C(=O)N=C1SCCN1C(=O)c1cccnc1OCC | 4.84
Cc1ccc(S(=O)(=O)NNC(=O)c2sccc2-n2cccc2)cc1 | 2.39
Cc1ccccc1-n1nc(C)c(N=O)c1N | 13.6
O=C(CCCN=C1NS(=O)(=O)c2ccccc21)Nc1ccc(Cl)cc1 | 8.87
O=C(OCc1ccccc1C(F)(F)F)c1cc([N+](=O)[O-])ccc1N1CCOCC1 | -3.01
O=C(CSc1n[nH]c(-c2ccccc2)n1)N1CCCC1 | 43.4
Cc1cc(N2CCN(c3cccc(C(F)(F)F)c3)CC2)n2ncnc2n1 | -5.52
C/C(Cn1nc([N+](=O)[O-])cc1C)=N\NC(=O)COc1c(Cl)cc(Cl)cc1Cl | -23.8
CCOC(=O)C1(Cc2cccc(F)c2)CCN(Cc2ccon2)CC1 | 7.83
COc1ccc(S(=O)(=O)Nc2cc(C)cc(C)n2)c2ccccc12 | 3.07
COc1ccc(OC)c(S(=O)(=O)N2CCC(C(=O)NCc3ccncc3)CC2)c1 | 19.2
CN(C)S(=O)(=O)c1ccc(=S)[nH]c1 | 14.1
O=C(CN(C(=O)c1csnn1)c1ccccc1F)NCc1ccc2c(c1)OCO2 | 9.07
COc1ccccc1NC(=O)COC(=O)Cc1ccc(S(=O)(=O)N2CCCCC2)s1 | 17.9
CCn1cc(C(=O)Nc2ccc(OC)c(OC)c2)c2cc(OC)c(OC)cc2c1=O | 0.878
COc1ccc(Cn2nnnc2C(c2ccccc2OC)N2CCC(C(N)=O)CC2)cc1 (stereo not drawn) | 1.65
C=CCn1c(O)c(N=NC(=S)Nc2cccc(OC)c2)c2ccccc21 | 0.44
CCCc1[nH]nc2c1C(c1cccc(OC(=O)c3ccco3)c1)C(C#N)=C(N)O2 (stereo not drawn) | 13.6
O=C(Nc1cccc(-c2cn3ccccc3n2)c1)C1CC1 | 7.14

Structure (SMILES) | hERG current change (%, negative = inhibition) at 1uM [%]
Cc1ccccc1Cn1c(=O)n(Cc2ccco2)c(=O)c2ccccc21 | 8.84
Cc1cnc(C(=O)Nc2ccc(C(=O)N3CCCCC3)cc2)cn1 | 5.84
CC1CCc2c(sc3nc(CN4CCOCC4)nc(NS(=O)(=O)c4cccc([N+](=O)[O-])c4)c23)C1 (stereo not drawn) | 4.76
CCOC(=O)c1cnc2c(ccc3ccccc32)c1NCCO | -14
CSc1nncc(/C(C)=N\Nc2cccc(C)c2)n1 | 1.31
Cn1c(=O)oc2cc(S(=O)(=O)NCCc3ccccc3)ccc21 | -3.93
O=C(Nc1nnc(C2CCCC2)s1)C1CCC1 | 9.77
CCNC(=S)N(CCc1ccc(OC)c(OC)c1)Cc1cc2cc(OC)ccc2[nH]c1=O | -10.1
COc1ccc(S(=O)(=O)Cc2ccc(C(=O)N3CCOCC3)o2)cc1 | 5.48
COc1cccc(-c2nc(CS(=O)(=O)CC(=O)Nc3cccc(C)c3C)c(C)o2)c1 | 14.8
CCCNC(=O)NC(=O)CSc1nc2ccccc2c(=O)n1Cc1ccncc1 | 7.68
CC(N=Cc1cc([N+](=O)[O-])ccc1O)c1ccccc1 (stereo not drawn) | 12.1
Cc1ccc2c(c1)c1nnc(SCC(=O)Nc3ccccc3C(F)(F)F)nc1n2CC(=O)O | 11.6
O=C1CN(C(=O)c2ccccc2)C(c2ccccc2)c2cc(F)ccc2N1 (stereo not drawn) | -17.5
Cc1ccc(C(=O)N/N=C2\CCCc3ccccc32)c(C)c1 | 9.68
CCC(O)(c1ccccc1)C(CN1CCOCC1)c1ccccc1.Cl (stereo not drawn) | 16
CC1=C(C)[N+](=O)C2(O)CCCCC2(C)N1[O-] (stereo not drawn) | 9.28
CC(/C=N\NC(=O)c1cccnc1)c1ccccc1 (stereo not drawn) | 9.96
C/C(=N\Nc1cc(C)nc(NCc2ccccc2)n1)c1cccc([N+](=O)[O-])c1 | 14.3

Structure (SMILES) | hERG current change (%, negative = inhibition) at 1uM [%]
O=C(Nc1ccccc1)Nc1ccc(S(=O)(=O)N2CCCCC2)cc1 | 12.5
CC1CCCN(C2(O)C(=O)Nc3ccc(Br)cc32)C1 (stereo not drawn) | 17.6
COc1ccccc1NC(=O)N1CCCC1C(=O)NC12CC3CC(CC(C3)C1)C2 (stereo not drawn) | 9.74
O=C1NC(=Nc2ccccc2)CS1 | 12.8
CC(C)(C=O)Cc1cc(C(C)(C)C)c(O)c(C(C)(C)C)c1 | 10.9
Cc1csc(=O)n1CC(=O)OCC(=O)NNC(=O)c1ccccc1 | 7.62
CSc1ncc(CN2CCC(C(=O)Nc3cccc(-c4cscn4)c3)CC2)cn1 | 9.87
Nc1cc(N)nc(SCC(=O)Nc2ccccc2N2CCOCC2)n1 | 9.81
CCOC(=O)c1cccc(OS(=O)(=O)Cc2ccccc2)c1 | 13.3
Cc1ccccc1-n1c(O)c(/C=N/NC(=O)c2ccccc2O)c(=O)[nH]c1=S | 12.2
COc1cc(C2NC(=S)NC(C)=C2C(=O)Nc2cc(C)cc(C)c2)ccc1O (stereo not drawn) | 6.58
Cc1ccc(-c2nnc(COC(=O)c3cccs3)o2)cc1 | -5.44
COc1ccc(S(=O)(=O)NC(CC(=O)NCc2ccco2)C(C)C)cc1 (stereo not drawn) | 5.58
COc1ccc(OC)c(-n2c(-c3cnccn3)n[nH]c2=S)c1 | 11.7
CCc1c(C)sc(NC(=O)c2cc(C)no2)c1C#N | 13.9
CC(C)N(C(=O)CSc1nnc(CSc2ncccn2)n1C)C(C)C | 13.7
CCCC(=O)Nc1ccc(NC(=O)C2CC2)cn1 | 2.25
O=C(NCc1nc2ccccc2[nH]1)C1=C[C@@H](c2csc3ccccc23)C[C@@H](OCCCCO)O1 | 5.15
O=C(Cn1cncn1)N/N=C/c1cc([N+](=O)[O-])ccc1O | 5.96
